Key:
naive 8.3-CD8+ T-cells = assay: Agonistic activity of peptides on naive 8.3-CD8+ T-cells (CD44/CD69 expression); conditions: naive 8.3-CD8+ T-cells cultured with peptide for 24 h
BacIYL-pulsed targets = assay: Killing of peptide-pulsed targets by differentiated 8.3-CTL; type: cell-based; conditions: differentiated 8.3-cytotoxic T-lymphocytes
8.3-CD8+ T-cells = assay: Antagonism assay of IGRP206-214-induced 8.3-CD8+ T-cell responses; conditions: peptide presented in isolation

Substance | upregulation of CD44 and CD69 (naive 8.3-CD8+ T-cells) | killing of peptide-pulsed targets by 8.3-CTL (BacIYL-pulsed targets) | concentrations antagonizing IGRP206-214-induced responses (IFNγ secretion and proliferation) (8.3-CD8+ T-cells)
IGRP206-214: epitope expressed by pancreatic beta cells; positive control agonist of 8.3-CD8+ T-cells (VYLKTNVFL) [reference compound] | elicited upregulation of both CD44 and CD69 | – | –
IYLKTNVYL (listed as Bacteroides sp.) [BacIYL] | only able to induce CD69 upregulation | do not kill | above 1 uM

Source: patent publication US10988516B2, “Methods and compositions for treating inflammation” (UTI Limited Partnership, priority 2012, dated 2021)
